Reference: article PMC6044718 (ACS Omega, 2017)
“And” between values parts separate entries of the source, which are not always exact repeats. Equal values may be shown once.

T1: extracellular domains of FGFR1c fused to Fc fragments, biotinylated (UniProt P11362 22-376, biotin (biotinylated; site not stated))
T1 sequence (looked up): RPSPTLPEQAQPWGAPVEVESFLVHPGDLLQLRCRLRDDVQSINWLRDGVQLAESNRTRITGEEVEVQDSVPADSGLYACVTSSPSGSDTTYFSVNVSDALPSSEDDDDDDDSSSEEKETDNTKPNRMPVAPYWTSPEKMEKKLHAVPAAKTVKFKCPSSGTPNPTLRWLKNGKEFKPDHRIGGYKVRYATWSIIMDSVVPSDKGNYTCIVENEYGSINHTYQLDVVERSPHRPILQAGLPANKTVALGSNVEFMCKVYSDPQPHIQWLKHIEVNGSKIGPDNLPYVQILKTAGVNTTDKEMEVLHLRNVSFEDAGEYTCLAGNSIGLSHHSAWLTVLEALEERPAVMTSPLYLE

B1: wild-type fibroblast growth factor 2 (FGF2) (ligand)
chain: not shown
B2: KCK-FGF2[C78S/C96S]-(vcMMAE)1 (ligand)
chain: not shown
modifications: vcMMAE (maleimidocaproyl-Val-Cit-PABC-monomethylauristatin E) on the cysteine of the N-terminal KCKSGG sequence
B3: KCK-FGF2-(vcMMAE)3 (ligand)
chain: not shown
modifications: vcMMAE (maleimidocaproyl-Val-Cit-PABC-monomethylauristatin E) on Cys78, Cys96 and the cysteine of the N-terminal KCKSGG sequence
B4: FGF2 WT-(vcMMAE)2 (ligand)
chain: not shown
modifications: vcMMAE (maleimidocaproyl-Val-Cit-PABC-monomethylauristatin E) on the two exposed cysteines Cys78 and Cys96

Biological target: T1, extracellular domains of FGFR1c fused …
Test: BLI

Row | Binder | koff | kon | Kd
1 | B1 | 0.000218 s⁻¹ and 0.000351 s⁻¹ and 0.000286 s⁻¹ | 910000 M⁻¹ s⁻¹ and 1.9e+06 M⁻¹ s⁻¹ and 1.3e+06 M⁻¹ s⁻¹ | –
2 | B2 | 0.000533 s⁻¹ and 0.00058 s⁻¹ and 0.000711 s⁻¹ | 545000 M⁻¹ s⁻¹ and 849000 M⁻¹ s⁻¹ and 866000 M⁻¹ s⁻¹ | 0.977 nM and 0.827 nM and 0.683 nM and 0.821 nM
3 | B3 | 0.000661 s⁻¹ and 0.000648 s⁻¹ and 0.000375 s⁻¹ | 244000 M⁻¹ s⁻¹ and 309000 M⁻¹ s⁻¹ and 262000 M⁻¹ s⁻¹ | 2.71 nM and 2.08 nM and 2.1 nM and 1.43 nM
4 | B4 | 0.000254 s⁻¹ and 0.000386 s⁻¹ and 0.000514 s⁻¹ | 691000 M⁻¹ s⁻¹ and 916000 M⁻¹ s⁻¹ and 952000 M⁻¹ s⁻¹ | 0.367 nM and 0.443 nM and 0.422 nM and 0.54 nM
